Reference: PubChem BioAssay AID1476 (National Center for Advancing Translational Sciences (NCATS), 2009)
Values joined by “and” are separate entries in the source; they are usually repeats but may differ in a detail not shown here. Equal values may be shown once. The campaign covered roughly 200,000 compounds. About 4,500 (2.2%) were called active. The shares of active, inactive and inconclusive entries below differ from those in the screen. Calls come from the whole dose curve; as a rule, active = well fitted inhibition curve with a large enough effect; inconclusive = small, poorly fitted or top-dose-only effect, or effect the other way; inactive = flat fitted curve, though single readings scatter. Where the call is inconclusive, the potency comes from a doubtful curve fit.
Note: nearly all actives have a fitted effect of over 40% in size.
Potency is the fitted concentration of half-maximal effect; tags give direction and shape of the fitted curve.
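Throughout, for max response, negative = inhibition: plate controls were enzyme without inhibitor for no effect and buffer without enzyme for full effect.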

What follows are compounds tested against Cruzipain (Trypanosoma cruzi) (UniProt P25779) (assay: qHTS Assay for Promiscuous and Specific Inhibitors of Cruzain (without detergent)). Conditions: purified cruzain, Z-FR-AMC fluorescence, no detergent.
UniProt P25779, sequence (P25779 whole entry, looked up): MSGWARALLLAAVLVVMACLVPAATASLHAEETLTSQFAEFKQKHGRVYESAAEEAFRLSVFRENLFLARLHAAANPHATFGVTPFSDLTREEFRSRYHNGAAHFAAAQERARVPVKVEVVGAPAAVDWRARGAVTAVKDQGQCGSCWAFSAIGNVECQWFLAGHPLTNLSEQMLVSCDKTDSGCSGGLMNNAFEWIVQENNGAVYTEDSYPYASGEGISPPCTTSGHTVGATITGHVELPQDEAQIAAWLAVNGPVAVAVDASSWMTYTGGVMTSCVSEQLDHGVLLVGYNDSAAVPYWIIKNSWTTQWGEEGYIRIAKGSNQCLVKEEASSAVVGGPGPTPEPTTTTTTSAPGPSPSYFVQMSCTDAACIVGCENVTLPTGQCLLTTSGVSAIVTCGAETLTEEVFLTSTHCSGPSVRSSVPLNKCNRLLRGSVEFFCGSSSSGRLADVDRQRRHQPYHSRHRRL
Procedure, shortened: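 Detergent-free condition (0.00005% Triton X-100) in acetate buffer pH 5.5 with DTT. 1.5 nM enzyme and compound were pre-mixed 15 min, then 2 uM Z-FR-AMC substrate added; reaction progress from fluorescence change between first and third reads (60 s).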
In the case of COc1ccc(Cn2nnnc2C(c2cccs2)N2CCN(c3ccc([N+](=O)[O-])cc3)CC2)cc1 (stereo not drawn), the Potency was active: 31.6 µM.
In the case of CCOCCCN(Cc1ccco1)C(=O)c1cc2c(=O)[nH]c3ccc(C)cc3c2s1, the Potency was inconclusive: 31.6 µM [activator, single point] and inconclusive: 3.16 µM [activator, single point].
In the case of O=C(Cn1cnc2c(cnn2-c2ccc(F)cc2)c1=O)NCC1CCCO1 (stereo not drawn), the max response, negative = inhibition was inactive: -3.89%.
In the case of COc1ccccc1CNC(=O)c1cc2c(s1)-c1ccccc1OC2, the max response, negative = inhibition was inactive: 14.8%.
In the case of COc1ccc(C2(CNC(=O)c3ccc(OC)c([N+](=O)[O-])c3)CCCCC2)cc1OC, the Potency was inconclusive: 39.8 µM [activator, single point].
In the case of CCOC(=O)N1CCN(C(=O)c2oc3ccc(S(=O)(=O)N4CC(C)CC(C)C4)cc3c2C)CC1 (stereo not drawn), the Potency was inconclusive: 12.6 µM [activator, partial curve].
CCOc1ccc(CNS(=O)(=O)c2ccc(-c3coc(C)n3)cc2)cc1OC was tested, and the Potency was inconclusive: 39.8 µM [activator, single point].
With COc1cccc(C2=NC(C)(C)NC(c3ccccc3O)C2)c1 (stereo not drawn) the Potency was inconclusive: 31.6 µM [inhibitor, single point].
Cc1cc(C)c2c(n1)sc1c(=O)n(-c3cc(Cl)ccc3C)nnc12 was tested, and the max response, negative = inhibition was inactive: 6.96%.
CCCn1c(CCCNC(=O)c2ccccc2OC)nc2ccccc21 was tested, and the max response, negative = inhibition was inactive: 12%.
For C=CCNC(=O)/C(C#N)=C/c1ccc(OS(=O)(=O)c2ccc(C)cc2)c(OC)c1, the Potency was inconclusive: 39.8 µM [activator, single point].
O=C(NCCc1nc(-c2ccccc2)cs1)c1ccc(Br)cc1 was tested, and the max response, negative = inhibition was inactive: 1.29%.
For COc1ccc(S(=O)(=O)N(CC(C)C)CC(C)C)c2cccnc12, the Potency was inconclusive: 39.8 µM [activator, single point].
O=C1CCCN1CCCn1cnc2c([nH]c3ccc(F)cc32)c1=O was tested, and the max response, negative = inhibition was inactive: 3.29%.
With O=C(CCCn1c(SCC(=O)c2ccccc2)nc2ccccc2c1=O)NCC1CCCO1 (stereo not drawn) the Potency was inconclusive: 31.6 µM [activator, single point].
With CCOc1ccc(N(CC)S(=O)(=O)N2CCCC(C(=O)NCCc3ccc(OC)cc3)C2)cc1 (stereo not drawn) the Potency was inconclusive: 25.1 µM [activator, partial curve].
With Cc1ccc(C)c(N2CCN(C(=O)c3cc(S(=O)(=O)N4CCCCCC4)cn3C)CC2)c1 the Potency was inconclusive: 31.6 µM [activator, single point].
Cc1ccc(S(=O)(=O)NCC2CCC(C(=O)NCCc3ccc(Cl)cc3)CC2)cc1 (stereo not drawn) was tested, and the max response, negative = inhibition was inactive: 11.8%.
In the case of c1ccc(-c2cnc(-c3ccccc3)nc2)cc1, the Potency was inconclusive: 39.8 µM [inhibitor, single point].
For Cc1nc(NC(=O)/C=C/c2ccccc2)sc1C(=O)Nc1cccc(Cl)c1, the Potency was inconclusive: 31.6 µM [inhibitor, single point].
CCn1cnc2c1c(=O)n(Cc1nnc3n1-c1ccccc1SC3)c(=O)n2Cc1ccccc1 was tested, and the Potency was inconclusive: 31.6 µM [activator, single point].
For Cc1nn(Cc2ccccc2Cl)c(C)c1C(=O)N1CCN(c2ccccc2)CC1, the Potency was inconclusive: 25.1 µM [activator, single point].
CC(=O)OC1CC[C@]2(C)C(CC(OC(C)=O)[C@@]3(C)C4=CC(=O)OC(c5ccoc5)[C@]4(C)CCC23)C1(C)C (stereo partly drawn) was tested, and the Potency was inconclusive: 39.8 µM [activator, single point] and inconclusive: 25.1 µM [activator, single point] and inconclusive: 12.6 µM [activator, partial curve].
With CCOC(=O)c1c(C)[nH]c(C(=O)COC(=O)CNC(=O)C2CCCCC2)c1C the Potency was active: 7.94 µM.
Cc1ccc(-c2cc(C(F)F)n3ncc(C(=O)N4CCC5(CC4)OCCO5)c3n2)cc1 was tested, and the Potency was inconclusive: 39.8 µM [activator, single point].
For Cn1c(=O)c2c3c(sc2n2c(SCC(N)=O)nnc12)CC(C(C)(C)C)CC3 (stereo not drawn), the Potency was inconclusive: 20 µM [activator, partial curve].
For Cn1nc(C(F)(F)F)c(/C=N/OC(=O)c2ccccc2)c1Sc1ccc(Cl)cc1, the Potency was inconclusive: 31.6 µM [inhibitor, single point].
With CC(=O)N1CCc2cc(Br)cc(S(=O)(=O)CCC(=O)Nc3ccc(C)cc3Cl)c21 the max response, negative = inhibition was inactive: 0.369%.
For CCOc1ccc2oc(=O)cc(CN3CCN(c4ccc(Cl)cc4)CC3)c2c1, the max response, negative = inhibition was inactive: 5.07%.
For Cc1ccc(C(=O)N2CCN(C3c4cccc5cccc(c45)C3NS(=O)(=O)c3ccccc3)CC2)cc1 (stereo not drawn), the Potency was inconclusive: 39.8 µM [inhibitor, single point].
In the case of CN(C)c1ccc(/C=N/NC(=O)c2ccc(Cl)cc2)cc1, the Potency was inconclusive: 25.1 µM [inhibitor, single point].
With COCCn1nnnc1C(c1ccc(OC)cc1)N1CCN(c2ccccc2F)CC1 (stereo not drawn) the Potency was inconclusive: 39.8 µM [activator, single point].
For COC(=O)c1sc2cccc(F)c2c1S(=O)(=O)N1CCN(c2ccc(C)cc2C)CC1, the Potency was inconclusive: 39.8 µM [inhibitor, single point].
With CCOc1ccccc1CNC(=O)C1CCCN(S(=O)(=O)c2ccc3c(ccn3C)c2)C1 (stereo not drawn) the Potency was inconclusive: 31.6 µM [inhibitor, single point].
In the case of O=C(CCc1ccc(S(=O)(=O)N2CCOCC2)cc1)Nc1cc(Cl)ccc1N1CCOCC1, the Potency was inconclusive: 31.6 µM [activator, single point].
CCc1ccc(-n2nc(C)c3c(C(=O)Nc4cc(C)ccc4C)cc(C)nc32)cc1 was tested, and the max response, negative = inhibition was inactive: -2.19%.
COc1cccc(S(=O)(=O)Nc2ccc(C(=O)N3CCOCC3)cc2)c1 was tested, and the Potency was inconclusive: 1 µM [inhibitor, single point].
In the case of Cc1ccc(-c2nnc(Nc3cccc(C(F)(F)F)c3)c3ccccc23)cc1S(=O)(=O)N1CCOCC1, the max response, negative = inhibition was inactive: 2.32%.
CC(C)(C)c1ccc(-c2noc(CCC(=O)Nc3cccc(Cl)c3)n2)cc1 was tested, and the Potency was inconclusive: 31.6 µM [inhibitor, single point].
In the case of CCOC(=O)N1CCN(C(=O)CN(c2cc(C)ccc2OC)S(=O)(=O)c2ccc(C)cc2)CC1, the Potency was inconclusive: 31.6 µM [activator, single point].
For O=S(=O)(c1ccc(NC(=S)N/N=C/c2ccc(N3CCOCC3)cc2)cc1)N1CCOCC1, the Potency was inconclusive: 39.8 µM [inhibitor, single point].
COc1ccc(C(=O)N2CCC3(CC2)CN(CC(C)C)C3)cc1 was tested, and the max response, negative = inhibition was inactive: 2.24%.
For Cc1cccc(N(C(=O)C(F)(F)F)C(C(=O)NC2CCCCC2)c2cccs2)c1 (stereo not drawn), the Potency was inconclusive: 39.8 µM [inhibitor, single point].
In the case of Cc1oc(=O)c(NC(=O)c2ccc(Cl)cc2)cc1C(=O)c1ccccc1, the Potency was active: 2 µM.
In the case of Cc1ccc(Cn2c(C)c(CNC(C)c3ccccc3)c(C(=O)O)c2C)cc1 (stereo not drawn), the max response, negative = inhibition was inactive: 11.3%.
In the case of Cc1cncn1CCc1nc2c3ccccc3nc(SCC(=O)Nc3ccccc3F)n2n1, the max response, negative = inhibition was inactive: -1.64%.
In the case of O=C(N1CCOCC1)C12CCC3CC(CC(C3)C1)C2, the max response, negative = inhibition was inactive: -2.2%.
Cc1ccc(C(=O)CC(=O)c2cccc(F)c2)c(O)c1 was tested, and the Potency was inconclusive: 31.6 µM [inhibitor, single point].
Cc1ccc(-c2nn(-c3ccccc3)cc2C(=O)OCC(=O)Nc2ncc(Cl)cc2Cl)cc1 was tested, and the Potency was active: 31.6 µM.
CCOC(=O)N1CCN(C(=O)COc2cccc3c2CCN(Cc2ccccc2F)C3=O)CC1 was tested, and the Potency was inconclusive: 39.8 µM [activator, single point].
In the case of COc1ccc(N2C3=C(CC4=C2CCCC4=O)C(=O)CCC3)cc1, the Potency was inconclusive: 31.6 µM [activator, single point].
C=CCn1c(N)c(C(=O)Nc2ccc(C)c(C)c2)c2nc3ccccc3nc21 was tested, and the Potency was inconclusive: 6.31 µM [activator, single point].
In the case of Cc1ccc(C)c(-c2nc3ccc(N)cc3[nH]2)c1, the Potency was inconclusive: 25.1 µM [inhibitor, single point].
CCOc1ccc(N(CC)S(=O)(=O)N2CCCC(C(=O)NCCc3ccccc3OC)C2)cc1 (stereo not drawn) was tested, and the Potency was inconclusive: 39.8 µM [activator, single point].
CCc1ccccc1NC(=O)c1cc(-c2ccc3c(c2)OCO3)on1 was tested, and the max response, negative = inhibition was inactive: -1.06%.
With CCOCN(C(=O)Cn1cnc2cc(C)c(C)cc21)c1c(C)cccc1CC the Potency was inconclusive: 31.6 µM [activator, single point].
Cc1ccc(N(CC(C)C)S(=O)(=O)c2nnc(NC(=O)c3cccs3)s2)cc1 was tested, and the max response, negative = inhibition was inactive: 2.49%.
In the case of Cc1cc(NC(=O)CSc2nc(CCC3CCCC3)nc3ccccc23)no1, the Potency was inconclusive: 20 µM [inhibitor, partial curve].
c1ccc2c(C3=NNC(=NC4CCCCC4)SC3)c[nH]c2c1 was tested, and the Potency was inconclusive: 39.8 µM [inhibitor, single point].
In the case of CCC(C)n1c(O)c(C=Nc2cccc(C(F)(F)F)c2)c(=O)[nH]c1=S (stereo not drawn), the max response, negative = inhibition was inactive: -2.84%.
In the case of CCOC(=O)C1CCN(C(=O)COc2cc(C)c(Br)c(C)c2)CC1, the Potency was inconclusive: 25.1 µM [activator, single point].
In the case of Cc1ccc2oc3c(c(=O)c2c1)C(c1ccc(OCC(N)=O)cc1)N(Cc1ccc2c(c1)OCO2)C3=O (stereo not drawn), the max response, negative = inhibition was inactive: 11.1%.
For COc1ccc(/C=C/C(=O)Nc2cc(C)nn2-c2nc3ccccc3n2Cc2cccc([N+](=O)[O-])c2)cc1, the Potency was active: 7.94 µM.
